Experimental data as given in PubChem BioAssay AID588855 (National Center for Advancing Translational Sciences (NCATS), 2011).
Screen size: about 410,000 compounds; about 5,000 (1.2%) were called active. This list was built around the results that the source calls inconclusive (neither active nor inactive); the mix of calls is not that of the screen. Calls come from the whole dose curve; as a rule, active = well fitted inhibition curve with a large enough effect; inconclusive = small, poorly fitted or top-dose-only effect; inactive = no such curve, though single readings can be large or run the other way. Potencies beside an inconclusive call are fits to weak or partial responses and may not hold up.

assay: qHTS for Inhibitors of TGF-b; conditions: HepG2 CAGA-GFP TGF-b/SMAD3 reporter, GFP fluorescence, 18 h, TGF-beta stimulated, 500 pg/mL final; series mostly up to 46.1 µM; note: nearly all actives have a fitted effect of over 65% in size
Outline: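 Inhibition was scored as loss of TGF-beta-induced (500 pg/mL final, 18 hours, 37 degrees C) GFP in HEPG2 cells carrying a CAGA-GFP reporter, in DMEM with 1% FBS. Well GFP was summed per cell; Activity was normalised to unstimulated and stimulated DMSO wells, then concentration-response fitting.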
Potency is the fitted concentration of half-maximal effect; tags give direction and shape of the fitted curve.

| Compound | Potency |
| --- | --- |
| Cc1cccc(NC(=O)Nc2ccc(F)cc2)n1 | inactive |
| CCCn1c(SCC(=O)NC2CCC(C)CC2)n[nH]c1=O (stereo not given) | inactive |
| O[C@H]1C[C@H](c2ccccc2)N(Cc2cccs2)C[C@@H]1n1cc(C2CC2)nn1 | inconclusive: 17.8 µM [inhibitor, single point] |
| COc1ccc(NC(=O)C(C)N(c2ccc(C)cc2)S(C)(=O)=O)cc1 (stereo not given) | inactive |
| COc1ccccc1N1CCN(CCS(=O)(=O)c2cc(Cl)ccc2Cl)CC1 | inactive |
| COc1cccc(CC2(CO)CCCN(Cc3ccc(OC)c(C)c3OC)C2)c1 (stereo not given) | inconclusive: 15.8 µM [inhibitor, single point] |
| CCOC(=O)N1CCC(NC(=O)CCC(=O)N2CCOc3ccccc32)CC1 | inconclusive: 1.26 µM [inhibitor, full curve, poor fit] |
| NS(=O)(=O)c1ccc(NC(=S)N2CCN(c3ccccc3Cl)CC2)cc1 | inconclusive: 0.501 µM [inhibitor, full curve] |
| CCOc1ccc(CN(C(=O)c2oc3cc(C)ccc3c2C)C2CCS(=O)(=O)C2)cc1 (stereo not given) | inconclusive: 35.5 µM [inhibitor, partial curve, poor fit] |
| Cc1cc(C)c(NC(=O)CN(C)CC(=O)Nc2cccc(S(=O)(=O)N(C)c3ccccc3)c2)c(C)c1 | inconclusive: 15.8 µM [inhibitor, single point] |
| CCCCCOP(=O)(OCCCCC)C1(NS(=O)(=O)c2ccccc2)C=CC(=O)c2ccccc21 (stereo not given) | inconclusive: 28.2 µM [inhibitor, single point] |
| Cc1ccc(C(=O)Nc2ncc([N+](=O)[O-])s2)cc1 | inconclusive: 20 µM [inhibitor, single point] |
| CNC(=O)c1ccc(NC(=O)Cc2ccc(S(=O)(=O)N3CCOCC3)s2)cc1 | inactive |
| Cc1ccccc1NC(=O)c1cccc(OCc2c(C)noc2C)c1 | inconclusive: 5.62 µM [inhibitor, single point] |
| CC(C)NC(=O)C1(C)CCN1Cc1ccc(C(F)(F)F)cc1 (stereo not given) | inactive |
| CCOC(=O)c1cccc(NC(=O)C2CCC(CNc3c(N4CCOCC4)c(=O)c3=O)CC2)c1 (stereo not given) | inconclusive: 5.62 µM [inhibitor, single point] |
| COc1cccc(NC(=O)c2oc3ccccc3c2NC(=O)c2ccc(C(F)(F)F)cc2)c1 | inactive |
| CCOc1ccccc1NCc1nnc(-c2ccccc2)o1 | inactive |
| O=C(NCc1ccc(F)cc1)Nc1cccc(Cl)c1 | inconclusive: 7.08 µM [inhibitor, partial curve] |
| COc1cc(/C=C(\C#N)c2nc3ccc(C)cc3[nH]2)c([N+](=O)[O-])cc1OC | inactive |
| COc1ccc(-c2ncc3ccccn23)cc1 | inactive |
| CN(C)CCNC(=O)c1c(NC(=O)c2ccccc2)sc2c1CCCC2 | inconclusive: 35.5 µM [inhibitor, single point] |
| O=C(c1ccc2c(c1)N(Cc1cccc(Cl)c1)C(=O)c1ccccc1S2(=O)=O)N1CCCCC1 | inactive |

| Compound | Potency |
| --- | --- |
| CCCOc1cccc(C(=O)N/N=C/c2ccoc2)c1 | inactive |
| O=C(NCC(c1ccco1)N1CCc2ccccc2C1)C(=O)Nc1ccc(F)cc1F (stereo not given) | inconclusive: 7.94 µM [inhibitor, partial curve] |
| O=C(O)c1ccccc1NC(c1ccccc1)c1ccc2cccnc2c1O (stereo not given) | active: 8.91 µM |
| S=C(Nc1ccc(Cl)cc1)NC1CCCCC1 | inconclusive: 35.5 µM [inhibitor, single point] |
| CCOC(=O)C(CC)Sc1cc(C)nc2ccc(OC)cc12 (stereo not given) | inconclusive: 0.631 µM [inhibitor, full curve] |
| Cc1cc2nc(N=C(N)N)nc(C)c2cc1C | inactive |
| Cc1oc2ncn(CC(C)C)c(=O)c2c1C(=O)N1CCN(c2ccc(F)cc2)CC1 | inconclusive: 6.31 µM [inhibitor, single point] |
| Cc1cccn2c(=O)c(C=O)c(Nc3ccc(S(N)(=O)=O)cc3)nc12 | inconclusive: 5.62 µM [inhibitor, single point] |
| COc1cccc(NC(=O)/C(C#N)=C\c2cn(Cc3ccc(C)cc3)c3ccccc23)c1 | inconclusive: 17.8 µM [inhibitor, partial curve, poor fit] |
| O=C(c1ccc(C(F)(F)F)cc1)N1CCC(c2nc(-c3ccc(S(=O)(=O)N4CCCC4)cc3)no2)CC1 | inconclusive: 0.631 µM [inhibitor, full curve, poor fit] |
| Cc1cccc(N2CCN(C(=O)c3ccc4c(c3)CCN4S(C)(=O)=O)CC2)c1C | inconclusive: 7.94 µM [inhibitor, partial curve] |
| O=C(c1c(F)cccc1F)N1CCN(c2ccccc2F)CC1 | inconclusive: 1.41 µM [inhibitor, partial curve] |
| O=c1c2cccnc2n(Cc2ccccc2F)c(=O)n1Cc1ccccc1Cl | inactive |
| CC(=O)Nc1nonc1-c1nnc(SCC(=O)Nc2cc(C)cc(C)c2)n1C | inactive |
| Cc1cc(NC(=O)CSc2ncnc3ccccc23)no1 | inactive |
| COc1ccc(C2(C)NC(=O)N(CC(=O)NC3CCCC3)C2=O)cc1OC (stereo not given) | inactive |
| COc1ccc(C2=CC(=O)OC(C)(c3ccccc3)O2)cc1 (stereo not given) | inconclusive: 22.4 µM [inhibitor, partial curve, poor fit] |
| COc1cc(OC)c(NC(=O)CCCn2nc(C)c3sc4ccccc4c3c2=O)cc1Cl | inconclusive: 5.62 µM [inhibitor, single point] |
| COC(=O)c1ccc(Cl)cc1NC(=O)N1CCCn2nc(C)cc21 | inconclusive: 35.5 µM [inhibitor, single point] |
| CCOC(=O)c1cc([N+](=O)[O-])sc1NC(=O)c1ccc(S(=O)(=O)N2CC3(C)CC2CC(C)(C)C3)cc1 (stereo not given) | inconclusive: 3.16 µM [inhibitor, full curve] |
| COc1cccc(/C=c2/[nH]c(=O)/c(=C\c3cccc(OC)c3OC)[nH]c2=O)c1OC | inactive |
| S=c1[nH]nc(COc2ccccc2)n1/N=C/c1ccc(Cl)c(Cl)c1 | inconclusive: 35.5 µM [inhibitor, single point] |
